Changes are numbered by the printed parent chain.
B1: 9 (antibody)
heavy: EVQLVQSGAEVKKPGASVKVSCKVSGYTLTELSMQWVRQAPGKGLEWMGGFDPDDGETMYAEKFQGRLTVTEDTSTDTVYMELRSLTSEDTALYFCATSPGYDFFDYWGQGTLVTVSSASTKGPSVFPLAPSSKSTSGGTAALGCLVKDYFPEPVTVSWNSGALTSGVHTFPAVLQSSGLYSLSSVVTVPSSSLGTQTYICNVNHKPSNTKVDKRV[omitted - human IgG1 Fc]
light: SYVLTQPPSVSVAPGQTARIPCGGNNIGSKSVHWYQQKPGQAPVLVVYDDRDRPSGIPERFSGSNSGNTATLTINRVEAGDEADYYCQVWDSSNDLLIFGGGTKLTVLGQPKAAPSVTLFPPSSEELQANKATLVCLISDFYPGAVTVAWKADSSPVKAGVETTTPSKQSNNKYAASSYLSLTPEQWKSHRSYSCQVTHEGSTVEKTVAPTECS
B2: 10 (antibody)
heavy: B1 heavy
light: B1 light with V3E, K30E, S31G, R51S, N75S
B3: 18 (antibody)
heavy: B1 heavy
light: B1 light with Q16K, P21T, R51S, S55L
B4: 42 (antibody)
heavy: EVQLVQSGAEVKKPGASVKVSCKVSGYTLTELSMHWVRQAPGKGLEWMGLVDPEDGETIYAQKFQGRVTMTEDTSTDTAYMELSSLRSEDTAVYYCAREEWSGDGDDAFDIWGQGTMVTVSSASTKGPSVFPLAPSSKSTSGGTAALGCLVKDYFPEPVTVSWNSGALTSGVHTFPAVLQSSGLYSLSSVVTVPSSSLGTQTYICNVNHKPSNTKVDKRV[omitted - human IgG1 Fc]
light: QSVLTQPPSVSAAPGQKVTISCSGSSSNIGSYSVSWYQQLPGTAPKLLIYDDNKRPSGIPDRFSGSNSGTSATLSITGLQTGDEADYYCGTWDSSLSAWVFGGGTKLTVLGQPKAAPSVTLFPPSSEELQANKATLVCLISDFYPGAVTVAWKADSSPVKAGVETTTPSKQSNNKYAASSYLSLTPEQWKSHRSYSCQVTHEGSTVEKTVAPTECS
B5: 170 (antibody)
heavy: EVQLVQSGAEVKKPGASVKVSCKVSGYTLTELSMQWVRQAPGKGLEWMGGFDPDDGETMYAEKFQGRLTVTEDTSTDTVYMELRSLTSEDTALYFCATSPGYDFFDYWGQGTLVTVSSASTKGPSVFPLAPSSKSTSGGTAALGCLVKDYFPEPVTVSWNSGALTSGVHTFPAVLQSSGLYSLSSVVTVPSSSLGTQTYICNVNHKPSNTKVDKRV[omitted - human IgG1 Fc with changes]
light: SYVLTQPPSVSVAPGQTARITCGGSDIGDEIVHWYQQKPGQAPVLVVYDDSDRPSGIPERFSGSNSGNTATLTISRAQAGDEADYYCQVWDSSSDHLIFGGGTKLTVLGQPKAAPSVTLFPPSSEELQANKATLVCLISDFYPGAVTVAWKADSSPVKAGVETTTPSKQSNNKYAASSYLSLTPEQWKSHRSYSCQVTHEGSTVEKTVAPTECS
B6: 124 (antibody)
heavy: EVQLVQSGAEVKKPGASVKVSCKVSGYTLTELSMQWVRQAPGKGLEWMGGFDPDDGETMYAEKFQGRLTVTEDTSTDTVYMELRSLTSEDTALYFCATSPGYDFFDYWGQGTLVTVSSASTKGPSVFPLAPSSKSTSGGTAALGCLVKDYFPEPVTVSWNSGALTSGVHTFPAVLQSSGLYSLSSVVTVPSSSLGTQTYICNVNHKPSNTKVDKRV[omitted - human IgG1 Fc with changes]
light: B1 light with V3E, Q16K, P21T, N25D, R51S
B7: 128 (antibody)
heavy: EVQLVQSGAEVKKPGASVKVSCKVSGYTLTELSMQWVRQAPGKGLEWMGGFDPDDAETMYAEKFQGRLTVTEDTSTDTVYMELRSLTSEDTALYFCATSPGYDFFDYWGQGTLVTVSSASTKGPSVFPLAPSSKSTSGGTAALGCLVKDYFPEPVTVSWNSGALTSGVHTFPAVLQSSGLYSLSSVVTVPSSSLGTQTYICNVNHKPSNTKVDKRV[omitted - human IgG1 Fc with changes]
light: B1 light with V3E, Q16K, P21T, N25D, R51S

These molecules were tested against T1, recombinant MBP-mutCALR Type 1 fusion protein (Homo sapiens, UniProt P27797, DEL40-40) (assay: Biacore SPR binding kinetics, Experiment 1). Details: Biacore 8K, 25° C., 1:1 binding model.
T1 construct: His6 (N); purchased Cepter (cepterbiopartners.com), custom made
Description: The amino acid sequence of recombinant MBP-mutCALR Type 1 fusion protein used in Experiments 1 and 2 is:
Experiment 1: Recombinant MBP-mutCALR Type 1 fusion protein was custom made at Cepter (cepterbiopartners.com). Data for the interaction of antibodies with recombinant MBP-mutCALR Type 1 fusion protein were collected at 25° C. on a Biacore 8K instrument (Cytiva, Marlborough, Mass.), and all reagents were obtained from Cytiva unless otherwise specified. The experiments were conducted using Tris-buffered saline (pH 7.2), 0.005% Surfactant P20, 1 mM CaCl2) as running buffer. To prepare the capture surfaces, anti-human IgG (Fc) antibodies (Product #29234600) was amine-coupled onto a CM4 chip (Product #BR100534) under standard conditions using an Amine Coupling Kit (Product #BR100050). Anti-mutCALR antibodies were captured onto the chip surface by injecting over flow cell 2 only at a flow rate of 30 μL/min for 30 seconds. […] The kinetics parameters were obtained by applying 1:1 binding model to fit the data from multiple-cycle injection experiments using Biacore Insight Evaluation software.

Molecule	ka [M⁻¹ s⁻¹]	kd [s⁻¹]
B1	3.02e+06	0.00904
B2	2.11e+06	0.00292
B3	2.37e+06	0.00628
B4	649000	0.00452

The molecules below were run against T1, recombinant MBP-mutCALR Type 1 fusion protein (assay: Biacore SPR binding kinetics, Experiment 2 (parental and variant antibodies)). Details: Biacore 8K, 25° C., 1:1 binding model.

Molecule	ka [M⁻¹ s⁻¹]	kd [s⁻¹]
B5	4.27e+06	0.00179
B6	1.23e+06	0.00128
B7	1.29e+06	0.00207

Each molecule was assayed on Ba/F3 cells transfected with MPL and mutCALR Type 1 (assay: Inhibition of cell proliferation, CellTiter-Glo 72 hours, mutCALR Type 1). Details: Ba/F3 engineered cells, high-throughput primary screening.
Format: cell-based
Description: To test the ability of anti-mutCALR antibodies to inhibit cell proliferation, engineered Ba/F3 cells transfected with MPL and mutCALR Type 1 were plated at 5,000 cells per well in RPMI 1640+2% FBS, antibodies added, incubated for 72 hours, and followed by assessment of cell viability using the CellTiter-Glo Luminescent Cell Viability Assay (Promega, Madison, Wis.) and Top Count (Perkin Elmer, Boston, Mass.) or Pherastar (BMG Labtech, Ortenberg, Germany) for luminescence quantification. Anti-mutCALR antibodies inhibit mutCALR-induced oncogenic cell proliferation in a dose-dependent manner in both the Ba/F3 engineered cells (FIG. 2).
To test the ability of anti-mutCALR antibodies to inhibit oncogenic cell proliferation triggered by the Type 1 and Type 2 CALR mutations, Ba/F3 cells (DSMZ) were engineered to express MPL+mutCALR Type 1 (52 bp deletion, SEQ ID NO:320) or MPL+mutCALR Type 2 (5 bp insertion; SEQ ID NO:321). Cells were plated at 5,000 cells per well in RPMI 1640+2% FBS, antibodies added, incubated for 72 hours, and followed by assessment of cell viability using the CellTiter-Glo Luminescent Cell Viability Assay (Promega, Madison, Wis.) and Top Count (Perkin Elmer, Boston, Mass.) or Pherastar (BMG Labtech, Ortenberg, Germany) for luminescence quantification. Anti-mutant CALR antibodies show potency to inhibit mutCALR-induced oncogenic cell proliferation associated with both Type 1 and Type 2 mutations (FIG. 3).

Molecule	IC50 inhibition of cell proliferation [ng/mL]
B1	4.6
B2	7.2
B3	9
B5	1.9
B6	4
B7	9.8

From patent publication US20230272055A1, “ANTI-MUTANT CALRETICULIN (CALR) ANTIBODIES AND USES THEREOF” (Incyte Corporation, priority 2021, published 2023)
